# “And” between values parts separate entries of the source, which are not always exact repeats. Equal values may be shown once. This list was built around the results that the source calls inconclusive (neither active nor inactive); the mix of calls is not that of the screen. For part of these data: No potency is given beside an inconclusive call; the fits are too rough. For part of these data: “Side channel” marks fits to a control or component signal instead of the main read-out. The source made the active and inactive calls. Unless noted, calls come from the whole dose curve; as a rule, active = well fitted curve in the direction sought with a large enough effect; inconclusive = small, poorly fitted or top-dose-only effect, or another doubt; inactive = no such curve, though single readings can be large; an effect the other way counts as inactive or inconclusive.
# Experiments:
# [1] = target: Peptidyl-prolyl cis-trans isomerase NIMA-interacting 1 (Homo sapiens) (UniProt Q13526); assay: qHTS Validation Assay to Find Inhibitors of Pin1 (AID 504536; active = well fitted inhibition curve with a large enough effect in the polarisation, with a control signal flat, not every such curve was filed as active; inconclusive = small, poorly fitted or top-dose-only effect, or effect the other way; the % refers to the polarisation; note: potency is the fitted concentration of half-maximal effect)
# In short: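 Fluorescence polarization competition: compounds (titration) displace HiFluor-488-labeled Pin1-1b peptide from Pin1 (0.3 uM final) in pH 7.5 HEPES buffer with DTT, 10 min at room temperature; %Activity normalized to no-enzyme wells, curves fitted.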
# [2] = qHTS for Inhibitors of ATXN expression: Validation of Cytotoxic Assay (AID 588349); note: potency is the fitted concentration of half-maximal effect
# In short: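 Titrated compounds are added to cultured HEK293 cells, which are then held at 37 degrees C for 72 hr; loss of intracellular ATP, measured with CellTiter Glo, indicates toxicity.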
# [3] = target: Glucocorticoid receptor (Homo sapiens) (UniProt P04150); assay: qHTS assay for small molecule agonists of glucocorticoid receptor signaling (AID 588532; active = well fitted curve in the direction sought with a large enough effect in the signal ratio, with a control signal flat; inconclusive = small, poorly fitted or top-dose-only effect, or a change in a side signal; inactive = no such curve, though single readings can be large or run the other way; the % refers to the signal ratio; note: potency is the fitted concentration of half-maximal effect;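 for activation: 100% = dexamethasone at 0.1 µM and 0% = DMSO only wells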); conditions: HeLa MMTV-bla, beta-lactamase ratio, agonist, 18 h; activation: active compounds read high, percent of dexamethasone control, DMSO zero
# In short: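 Agonist-mode qHTS: GRE-driven beta-lactamase in HeLa cells exposed 18 h to titrated compounds (up to 92 uM), then CCF4 ratio read after 2 h at RT; Hill-fitted EC50, efficacy relative to 0.1 uM dexamethasone.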
# [4] = target: ATPase family AAA domain-containing protein 5 (Homo sapiens) (UniProt Q96QE3); assay: Validation screen for small molecules that inhibit ELG1-dependent DNA repair in human embryonic kidney (HEK293T) cells expressing luciferase-tagged ELG1 (AID 493107); note: nearly all actives have a fitted effect of over 70% in size; note: potency is the fitted concentration of half-maximal effect
# In short: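 Cells are dispensed in 1536-well format, then 5-fluorouridine and compound are pinned in. After a 16 hr incubation at 37 °C and 5% CO2, ONE-Glo is added and luciferase measured on a CCD imager.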
# [5] = Nrf2 qHTS screen for inhibitors: Validation (AID 493153; active = well fitted inhibition curve with a large enough effect in the main read-out, with a control signal flat, not every such curve was filed as active; inconclusive = small, poorly fitted or top-dose-only effect, or effect the other way, or a change in a side signal; inactive = no such curve, though single readings can be large or run the other way; note: potency is the fitted concentration of half-maximal effect;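 for activity change, negative = inhibition: A549 cells with ARE-driven firefly luciferase reporter reporting Nrf2 activity; % of control where 0% means no effect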)
# In short: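 A549 ARE_Fluc, 5% FBS OPTI-MEM; cpd titration, 18-24 h, 37°C/5% CO2. Read 1: CellTiter-Fluor (Ex 405/Em 525), cytotox. Read 2: luciferase lum, Nrf2 activity.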
# [6] = target: phosphoglycerate mutase (Leishmania major) (UniProt Q4Q090); assay: qHTS Validation Assay to Find Inhibitors of Phosphoglycerate Mutase (AID 504548); conditions: biochemical enzyme activity, inhibition qHTS; note: potency is the fitted concentration of half-maximal effect
# In short: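 Inhibition of L. major PGAM was assessed by Kinase-GloPlus luminescence following a 45-minute room-temperature reaction with enzyme at 1.25nM final.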
# [7] = qHTS for Inhibitors of ATXN expression: Validation (AID 588378); note: nearly all actives have a fitted effect of over 75% in size; note: potency is the fitted concentration of half-maximal effect; for activity change, negative = inhibition: % is set by controls: 0 for no effect and ±100 for the full control effect
# In short: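 HEK293 cells carrying ATXN2-firefly luciferase reporter, treated with compound 24 h at 37 °C. Viability read first by CellTiter-Fluor (405/525 nm), then reporter expression by Bright-Glo luminescence; controls were a known ATXN2 expression inhibitor and a luciferase inhibitor.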
# [8] = target: Ubiquitin carboxyl-terminal hydrolase 1 (Homo sapiens) (UniProt O94782); assay: Inhibitors of USP1/UAF1: Pilot qHTS (AID 504865); note: potency is the fitted concentration of half-maximal effect;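 note: rhodamine fluorescence freed from ubiquitin-rhodamine substrate followed over time; nearly all actives have a fitted effect of over 35% in size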; for activity change, negative = inhibition: top concentration of the series differs between compounds; % is set by controls: 0 for no effect and ±100 for the full control effect
# In short: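 USP1/UAF1 complex at 1 nM preincubated 15 min at room temperature with compound, then Ub-Rho substrate added at 150 nM final. Fluorescence (480/540 nm) read kinetically in 50 mM HEPES pH 7.8, 0.5 mM EDTA, 1 mM TCEP, 0.1 mg/ml BSA, 0.01% Tween-20.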
# [9] = target: Phosphoglycerate kinase, glycosomal (Trypanosoma brucei brucei) (UniProt P07378); assay: qHTS Validation Assay to Find Inhibitors of Phosphoglycerate Kinase (AID 504547); conditions: enzymatic PGK inhibition, coupled luminescence read-out; note: potency is the fitted concentration of half-maximal effect
# In short: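 Luminescence end-point (Kinase-Glo Plus, 10 min) after a 60 min room-temperature coupled reaction. GAPDH at 100nM final supplies 1,3-BPG to PGK. Buffer: 100mM TEA pH 7.6, 5mM MgCl2, 0.01% Tween-20. Wells lacking PGK served as controls.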
# [10] = target: Glucocorticoid receptor (Homo sapiens) (UniProt P04150); assay: qHTS assay for small molecule antagonists of glucocorticoid receptor signaling (AID 588533; active = well fitted inhibition curve with a large enough effect in the signal ratio, with a control signal flat, not every such curve was filed as active; inconclusive = small, poorly fitted or top-dose-only effect, or effect the other way, or a change in a side signal; the % refers to the signal ratio;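 note: cells stimulated with 2 nM dexamethasone as agonist; % is set by controls: 0 for no effect and ±100 for the full control effect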); conditions: HeLa MMTV-bla, GRE beta-lactamase ratio, antagonist mode, 18 h; activity change, negative = inhibition: at 76.8 µM (top of the series)
# [11] = Validation screen for small molecules that induce DNA re-replication in SW480 colon adenocarcinoma cells (AID 504364); note: 0% is about no effect
# In short: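 Image-based qHTS: compounds were incubated with SW480 cells for 48 hr, nuclei stained with Hoechst, and per-nucleus fluorescence intensity scanned to flag cells with excess DNA content.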
# [12] = target: Estrogen receptor (Homo sapiens) (UniProt P03372); assay: qHTS assay for small molecule agonists of estrogen receptor alpha signaling (AID 588514; calls by dose curve;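 note: 0% = vehicle only and 100% = reference agonist; nearly all actives have a fitted effect of over 70% in size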); conditions: ER-alpha-UAS-bla HEK293, beta-lactamase ratio, 18 h; activation: at 76.8 µM (top of the series), percent of full estradiol response, vehicle zero
# In short: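 Efficacy is expressed against 20 nM 17-beta-estradiol (100%) and DMSO basal (0%); EC50 from Hill equation. Assay: beta-lactamase reporter in ER-alpha-UAS-bla HEK 293 cells, 18 h compound incubation, CCF4 detection.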
# [13] = target: Androgen receptor (Homo sapiens) (UniProt P10275); assay: qHTS assay for small molecule antagonists of androgen receptor signaling (AID 588516; active = well fitted curve in the direction sought with a large enough effect in the signal ratio, with a control signal flat, not every such curve was filed as active; inconclusive = small, poorly fitted or top-dose-only effect, or effect the other way, or a change in a side signal; inactive = no such curve, though single readings can be large or run the other way; the % refers to the signal ratio; note: % is set by controls: 0 for no effect and ±100 for the full control effect); conditions: AR-UAS-bla HEK293, beta-lactamase ratio, antagonist mode, 16 h; activity change, negative = inhibition: at 76.8 µM (top of the series)
# In short: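 Cells were plated and incubated 5 h, compounds added in titration, then R1881 (10 nM final) as agonist. After 16 h at 37 C, CCF4 substrate was loaded for 2 h at room temperature and fluorescence measured.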
# [14] = target: Peroxisome proliferator-activated receptor delta (Homo sapiens) (UniProt Q03181); assay: qHTS assay for small molecule agonists of peroxisome proliferator-activated receptor delta signaling (AID 588534; calls by dose curve; note: potency is the fitted concentration of half-maximal effect)
# In short: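 Agonist-mode qHTS; reporter cells, 5 hrs 37 C pre-incubation; compound titration, 18 hrs 37 C; CCF4 dye, 2 hrs RT; fluorescence read. EC50/efficacy via Hill fit.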
# [15] = target: Bile acid receptor (Homo sapiens) (UniProt Q96RI1); assay: qHTS assay for small molecule agonists of farnesoid X receptor signaling (AID 588527; calls by dose curve; note: potency is the fitted concentration of half-maximal effect); conditions: HEK293T FXR-UAS-bla, beta-lactamase ratio, 16 h; activation: active compounds read high
# In short: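 Quantitative HTS used FXR-UAS-bla HEK293T cells with 16 h compound incubation at 37 C. EC50 values came from concentration-response curves normalized to chenodeoxycholic acid.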
# Tags give direction and shape of the fitted curve or compound fluorescence and quenching.
# Chain of UniProt Q13526 (Q13526 whole entry, looked up): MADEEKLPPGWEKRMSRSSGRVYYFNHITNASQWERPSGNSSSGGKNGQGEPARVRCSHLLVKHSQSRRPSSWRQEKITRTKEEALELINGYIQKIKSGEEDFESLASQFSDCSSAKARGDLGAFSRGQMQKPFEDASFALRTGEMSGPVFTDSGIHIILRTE
# Chain of UniProt Q96QE3 (Q96QE3 whole entry, looked up, the tested form may be a part): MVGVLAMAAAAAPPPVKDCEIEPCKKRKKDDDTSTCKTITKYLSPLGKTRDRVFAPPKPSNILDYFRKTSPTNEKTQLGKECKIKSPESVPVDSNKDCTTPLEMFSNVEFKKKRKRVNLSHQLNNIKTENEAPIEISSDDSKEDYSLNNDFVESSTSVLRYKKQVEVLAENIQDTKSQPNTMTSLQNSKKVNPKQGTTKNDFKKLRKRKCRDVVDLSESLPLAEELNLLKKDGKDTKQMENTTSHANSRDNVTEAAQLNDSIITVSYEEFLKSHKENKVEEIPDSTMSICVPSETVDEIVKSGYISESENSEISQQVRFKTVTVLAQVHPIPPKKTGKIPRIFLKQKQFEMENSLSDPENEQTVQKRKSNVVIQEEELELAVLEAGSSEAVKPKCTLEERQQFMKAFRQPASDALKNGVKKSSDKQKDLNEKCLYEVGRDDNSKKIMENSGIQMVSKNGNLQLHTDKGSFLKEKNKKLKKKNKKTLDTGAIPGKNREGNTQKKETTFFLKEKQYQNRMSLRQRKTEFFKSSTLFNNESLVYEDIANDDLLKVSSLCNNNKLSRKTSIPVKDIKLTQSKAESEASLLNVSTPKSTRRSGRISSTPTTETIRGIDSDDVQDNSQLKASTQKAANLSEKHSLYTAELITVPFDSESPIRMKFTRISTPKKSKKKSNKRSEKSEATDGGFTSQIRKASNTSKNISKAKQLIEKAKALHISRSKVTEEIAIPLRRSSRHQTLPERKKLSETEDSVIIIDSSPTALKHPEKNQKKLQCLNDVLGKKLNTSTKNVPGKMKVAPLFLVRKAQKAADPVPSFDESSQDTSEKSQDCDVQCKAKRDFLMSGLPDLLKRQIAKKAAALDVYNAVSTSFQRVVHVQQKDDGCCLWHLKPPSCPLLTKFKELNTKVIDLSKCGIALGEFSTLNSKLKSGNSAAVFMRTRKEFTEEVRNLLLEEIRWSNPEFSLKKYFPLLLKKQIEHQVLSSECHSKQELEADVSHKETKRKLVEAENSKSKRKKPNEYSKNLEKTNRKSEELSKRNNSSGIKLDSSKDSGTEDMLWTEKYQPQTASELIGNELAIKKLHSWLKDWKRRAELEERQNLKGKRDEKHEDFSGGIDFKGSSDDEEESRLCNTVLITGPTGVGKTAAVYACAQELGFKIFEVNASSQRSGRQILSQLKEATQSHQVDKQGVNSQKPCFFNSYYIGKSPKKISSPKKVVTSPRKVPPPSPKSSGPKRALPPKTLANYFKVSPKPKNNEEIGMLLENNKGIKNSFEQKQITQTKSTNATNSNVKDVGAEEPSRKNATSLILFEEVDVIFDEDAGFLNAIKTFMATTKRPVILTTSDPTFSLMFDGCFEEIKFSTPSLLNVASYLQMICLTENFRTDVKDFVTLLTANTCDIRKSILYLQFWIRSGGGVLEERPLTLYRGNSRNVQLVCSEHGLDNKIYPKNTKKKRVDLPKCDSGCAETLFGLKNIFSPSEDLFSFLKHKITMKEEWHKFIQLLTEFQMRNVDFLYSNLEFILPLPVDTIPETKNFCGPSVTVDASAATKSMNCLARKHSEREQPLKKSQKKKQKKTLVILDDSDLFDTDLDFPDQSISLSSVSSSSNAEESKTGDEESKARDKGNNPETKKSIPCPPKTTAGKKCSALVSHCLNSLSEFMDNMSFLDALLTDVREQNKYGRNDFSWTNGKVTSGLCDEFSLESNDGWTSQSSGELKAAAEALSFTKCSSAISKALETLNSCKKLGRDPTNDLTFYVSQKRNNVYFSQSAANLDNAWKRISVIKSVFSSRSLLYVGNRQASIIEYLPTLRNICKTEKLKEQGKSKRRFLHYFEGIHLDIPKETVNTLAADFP
# Chain of UniProt O94782 (O94782 whole entry, looked up): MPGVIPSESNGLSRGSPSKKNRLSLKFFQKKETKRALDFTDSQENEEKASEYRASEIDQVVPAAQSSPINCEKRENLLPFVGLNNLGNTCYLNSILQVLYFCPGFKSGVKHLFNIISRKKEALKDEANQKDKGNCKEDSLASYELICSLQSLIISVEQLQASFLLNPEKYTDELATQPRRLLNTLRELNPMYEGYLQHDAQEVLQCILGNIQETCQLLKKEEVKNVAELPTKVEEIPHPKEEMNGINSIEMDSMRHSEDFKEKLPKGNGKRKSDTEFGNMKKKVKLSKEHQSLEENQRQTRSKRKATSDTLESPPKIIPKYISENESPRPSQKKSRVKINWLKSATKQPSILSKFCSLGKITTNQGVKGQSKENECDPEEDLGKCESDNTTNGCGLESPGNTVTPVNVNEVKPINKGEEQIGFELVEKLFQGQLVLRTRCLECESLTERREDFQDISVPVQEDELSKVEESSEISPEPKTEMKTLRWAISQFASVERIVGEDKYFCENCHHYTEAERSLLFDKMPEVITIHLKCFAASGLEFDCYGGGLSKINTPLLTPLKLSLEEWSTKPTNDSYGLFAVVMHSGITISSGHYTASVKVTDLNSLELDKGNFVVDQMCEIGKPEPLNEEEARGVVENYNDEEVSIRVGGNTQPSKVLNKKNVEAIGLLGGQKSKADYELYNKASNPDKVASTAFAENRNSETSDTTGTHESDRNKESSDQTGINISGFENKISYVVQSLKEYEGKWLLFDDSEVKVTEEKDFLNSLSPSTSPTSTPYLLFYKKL
# Chain of UniProt P10275 (P10275 whole entry, looked up): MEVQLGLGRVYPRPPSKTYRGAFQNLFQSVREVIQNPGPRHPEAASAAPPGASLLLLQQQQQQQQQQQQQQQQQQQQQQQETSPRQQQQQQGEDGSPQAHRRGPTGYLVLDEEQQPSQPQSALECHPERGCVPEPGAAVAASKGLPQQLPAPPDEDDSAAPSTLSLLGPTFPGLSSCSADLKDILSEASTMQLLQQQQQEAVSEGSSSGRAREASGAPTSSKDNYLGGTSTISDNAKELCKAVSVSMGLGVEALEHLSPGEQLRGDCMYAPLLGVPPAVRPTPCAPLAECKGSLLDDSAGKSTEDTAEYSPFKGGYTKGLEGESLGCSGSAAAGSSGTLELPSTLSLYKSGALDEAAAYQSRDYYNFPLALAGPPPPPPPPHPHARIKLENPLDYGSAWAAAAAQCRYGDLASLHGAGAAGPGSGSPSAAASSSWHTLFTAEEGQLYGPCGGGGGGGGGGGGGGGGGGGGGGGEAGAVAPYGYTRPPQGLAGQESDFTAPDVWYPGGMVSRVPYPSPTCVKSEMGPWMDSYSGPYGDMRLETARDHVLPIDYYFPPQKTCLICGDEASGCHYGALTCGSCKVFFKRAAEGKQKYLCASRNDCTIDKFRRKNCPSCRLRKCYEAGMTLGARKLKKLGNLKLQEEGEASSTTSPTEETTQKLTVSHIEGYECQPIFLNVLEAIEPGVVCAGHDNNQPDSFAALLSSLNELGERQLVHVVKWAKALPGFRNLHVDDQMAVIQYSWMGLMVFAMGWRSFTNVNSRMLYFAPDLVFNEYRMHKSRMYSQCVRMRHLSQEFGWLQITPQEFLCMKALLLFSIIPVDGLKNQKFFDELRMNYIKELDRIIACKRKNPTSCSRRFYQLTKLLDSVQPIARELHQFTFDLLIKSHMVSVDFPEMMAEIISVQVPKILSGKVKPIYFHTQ
# Chain of UniProt Q03181 (Q03181 whole entry, looked up): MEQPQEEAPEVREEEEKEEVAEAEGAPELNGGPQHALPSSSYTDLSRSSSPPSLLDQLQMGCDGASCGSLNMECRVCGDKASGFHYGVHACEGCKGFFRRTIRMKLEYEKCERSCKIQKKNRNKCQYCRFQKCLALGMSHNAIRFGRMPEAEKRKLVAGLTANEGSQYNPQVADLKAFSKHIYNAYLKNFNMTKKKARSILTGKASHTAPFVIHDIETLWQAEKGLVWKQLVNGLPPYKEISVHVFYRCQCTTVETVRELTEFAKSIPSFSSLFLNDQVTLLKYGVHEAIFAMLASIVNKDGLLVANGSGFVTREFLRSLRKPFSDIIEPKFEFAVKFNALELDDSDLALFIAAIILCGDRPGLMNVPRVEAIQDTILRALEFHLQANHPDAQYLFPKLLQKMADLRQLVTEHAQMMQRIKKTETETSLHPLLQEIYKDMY
# Chain of UniProt P03372 (P03372 whole entry, looked up): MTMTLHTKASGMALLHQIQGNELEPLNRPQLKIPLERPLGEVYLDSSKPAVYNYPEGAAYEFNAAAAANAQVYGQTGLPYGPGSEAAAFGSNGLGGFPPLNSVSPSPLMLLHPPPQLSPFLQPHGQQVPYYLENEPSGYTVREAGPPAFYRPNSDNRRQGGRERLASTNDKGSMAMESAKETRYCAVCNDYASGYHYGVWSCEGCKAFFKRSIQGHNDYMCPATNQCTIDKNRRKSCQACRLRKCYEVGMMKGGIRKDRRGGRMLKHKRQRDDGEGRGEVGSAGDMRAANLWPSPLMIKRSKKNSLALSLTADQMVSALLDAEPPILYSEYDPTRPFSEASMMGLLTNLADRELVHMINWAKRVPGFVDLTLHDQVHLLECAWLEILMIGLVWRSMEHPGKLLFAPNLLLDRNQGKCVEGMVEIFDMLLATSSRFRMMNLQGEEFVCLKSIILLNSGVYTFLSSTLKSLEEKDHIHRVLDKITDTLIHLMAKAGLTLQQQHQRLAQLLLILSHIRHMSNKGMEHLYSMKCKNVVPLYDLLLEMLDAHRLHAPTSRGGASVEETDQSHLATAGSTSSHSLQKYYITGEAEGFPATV
smiles,measurement,setting,value
N[C@@H](Cc1ccc(O)c(O)c1)C(=O)O,Potency,[1],"inconclusive [falling, single point]"
same,Potency,[2],inactive
same,activation,[3],inactive: -2.15%
NCCCCNCCCN,Potency,[4],"inconclusive [activator, full curve]"
COc1cc2c(cc1OC)C1CC(=O)C(CC(C)C)CN1CC2 (stereo unspecified),Potency,[4],"inconclusive [activator, single point]"
same,Potency,[2],inactive
CN(C)CCCN1c2ccccc2CCc2ccc(Cl)cc21,Potency,[4],"inconclusive [inhibitor, full curve]"
same,Potency,[5],inactive
same,Potency,[6],"inconclusive [activator, full curve, poor fit]"
same,Potency,[2],"inconclusive [cytotoxic, single point]"
same,Potency,[7],"inconclusive [inhibitor, partial curve]"
COc1nc(N)nc2c1ncn2[C@@H]1O[C@H](CO)[C@@H](O)[C@@H]1O,Potency,[8],active: 22.4 µM
O=c1c(O)c(-c2ccc(O)cc2O)oc2cc(O)cc(O)c12,Potency,[1],"inconclusive [quencher, side channel, partial curve, poor fit]"
same,Potency,[9],"inconclusive [inhibitor, single point]"
same,Potency,[8],active: 50.1 µM
same,Potency,[10],inactive
COc1cc2nc(N(C)CCCNC(=O)C3CCCO3)nc(N)c2cc1OC (stereo unspecified),Potency,[4],inactive
CN1CCN2c3ccccc3Cc3ccccc3C2C1 (stereo unspecified),Potency,[4],"inconclusive [inhibitor, single point]"
same,Potency,[7],"inconclusive [inhibitor, single point]"
CCOC(=O)C(C)Oc1cccc2c(=O)n(CC(=O)Nc3ccc4c(c3)OCCO4)ccc12 (stereo unspecified),Potency,[1],"inconclusive [quencher, side channel, partial curve, poor fit]"
same,Potency,[2],inactive
same,Potency,[7],inactive
CC1=C(C(=O)O)N2C(=O)[C@@H](NC(=O)C(N)c3ccccc3)[C@H]2SC1 (stereo partly specified),Potency,[4],inactive
same,Potency,[1],"inconclusive [falling, single point]"
same,Potency,[7],inactive
Nc1nc2c(ncn2COC(CO)CO)c(=O)[nH]1,Potency,[4],inactive
same,Potency,[11],inactive
same,Potency,[8],inactive
CC(C)(Oc1ccc(C2CC2(Cl)Cl)cc1)C(=O)O (stereo unspecified),Potency,[4],inactive
same,activation,[12],inconclusive: 62.2%
same,Potency,[13],inactive
same,Potency,[14],"inconclusive [side channel, rising, partial curve, poor fit]"
Cc1cn([C@H]2C[C@H](N=[N+]=[N-])[C@@H](CO)O2)c(=O)[nH]c1=O,Potency,[1],"inconclusive [falling, single point]"
same,Potency,[8],inactive
same,Potency,[15],inconclusive
same,activation,[3],inactive: -3.02% and inactive: 6.31%
same,Potency,[10],inactive
NS(=O)(=O)c1cc2c(cc1Cl)NC=NS2(=O)=O,Potency,[4],inactive
same,Potency,[2],inactive
CC(=O)N1CCN(c2ccc(OC[C@H]3CO[C@](Cn4ccnc4)(c4ccc(Cl)cc4Cl)O3)cc2)CC1,Potency,[11],inactive
Fc1ccc([C@@H]2CCNC[C@H]2COc2ccc3c(c2)OCO3)cc1,Potency,[4],"inconclusive [inhibitor, single point]"
same,Potency,[7],active: 35.5 µM
COc1ccc2ccc(=O)oc2c1CC=C(C)C,Potency,[8],"inconclusive [inhibitor, partial curve]"
CN(C)c1nc(N(C)C)nc(N(C)C)n1,Potency,[1],inactive
Cn1c(=O)c2c(ncn2C)n(C)c1=O,Potency,[5],inactive
same,Potency,[8],inactive
same,Potency,[3],"inconclusive [side channel, rising, full curve, poor fit]"
C=CCc1cccc(C=NNC(=O)CN2CCN(Cc3ccccc3)CC2)c1O,Potency,[4],"inconclusive [inhibitor, partial curve]"
same,Potency,[5],"inconclusive [inhibitor, partial curve]"
same,Potency,[8],"inconclusive [inhibitor, partial curve, poor fit]"
same,Potency,[7],active: 3.55 µM

# From PubChem BioAssay (NCATS)
